# In the supplement of paper PMC11417369:
# The list shows a part of the results.
# Tested on: PfAP2-HC AP2 domain (GST-tagged)
# Experiment: gcPBM binding intensity (ln(normalized median fluorescence intensity)); higher = stronger DNA binding
# In short: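 The binding buffer was 1× PBS containing 1% milk, 0.2 mg/ml BSA, 0.5% salmon testes DNA and 0.03% Triton X-100. In it, GST-tagged P. falciparum DNA-binding domains expressed in E. coli were applied for 1 h to an Agilent 4 × 180k array of primer-extended double-stranded 36-bp intergenic genomic probes plus negative controls. Binding intensity, read with Alexa488 anti-GST antibody and a 488 nm scan, is the highest Masliner-normalised natural-log median intensity across replicate spots of either probe orientation.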
row,Sequence,gcPBM binding intensity (ln)
1,TAATTTCTTATGTATTGTACAAATAATATATTATAT [XGTACX_site1037],9.69
2,TTTTCTGTGTTTTTGGGTACACACAAATAGCTTGTA [XGTACX_site8553],9.9
3,ATGGTTTAATTATATACACACTCGAAAATAACGACA [CACACA_site3258],9.64
4,TGATATTATATTGTGATGCACTTTAAAAATATAAAG [GTGCAC_site9509],9.25
5,CTTATTTTATTCGAATGTACATAATTGTTAGACATT [XGTACX_site8583],9.56
6,AAAAAAAGGATGTACGTATCATAATTTTATTTTATA [CACACA_negctrl_site1543],9.68
7,TTTTACAAATGTTTTACACACACATAATTGTATCAA [CACACA_site4166],9.92
8,AATAATAACAAATGAACACACATATAGATGAGCAAA [CACACA_site7076],10.3
9,CTTAAGTAAAATTAAAGTACATGGACAAAAAATATA [XGTACX_site7900],9.62
10,TATCTCATGCGCACAAAAATATATGCAAAGAGTATA [TGCATGCA_negctrl_site201],9.54
11,ATATGTGTTAAAAATGCACACAAAAAAATATACATA [CACACA_site7988],10
12,CAATTTTACTCATAAACACACATATATATGTTATTA [CACACA_site3152],9.8
13,ATAAAAATGTATATATGTACATATATATATATATAT [XGTACX_site1505],10.4
14,TTTTTTTTTTTTAATACACACATATATATATTTATT [CACACA_site3994],9.76
15,GTAAAAAAAAAAAAATGTACACATATATATAATATA [XGTACX_site159],9.6
16,AACATAATTAAAAATTGTACAGAATTTCAATCGAAA [XGTACX_site7542],9.62
17,CATATACATACACATACACACATACAGACATACACA [CACACA_site6919],10.2
18,GGGAAAGAACCATATACATGCATATTTACCGTTAAA [TGCATGCA_site519],9.57
19,TGAAATTTTATTAATGTGCACATATATTTATTGTTC,9.76
20,CTTTTTAATTAATACACACACACACCCATATATATA [CACACA_site2292],10.6
21,ATCACTTGAGAATAATTACATTAATATATATTTATG [TGCATGCA_negctrl_site581],9.48
22,ATATTATCCCTATTTGCACACAAGAGTAATTTTTTA [CACACA_site3908],9.87
23,TTTCTTTCTATTGTTATATTTATAATAATTATAATT [XGTACX_negctrl_site215],9.72
24,TATAAAATTACATTTTGTCATTTATTTTTTCCCACT [TGCATGCA_negctrl_site110],9.49
